Assay results: patent publication EP0237495A2, “Halogenides of the ester of 2,N,N,N-dimethyl-alkyl-amino-ethanol with substituted acetic acid and pharmaceutical compositions having antiinflammatory and antiseptic activities containing same” (Sigma-Tau Industrie Farmaceutiche Riunite S.p.A., priority 1986, dated 1987)

Columns and labels:
Bacillus cereus mycoides = assay: microbe, parasite or virus in culture; conditions: read-out: Minimum Inhibiting Concentration
Salmonella cholerae suis = assay: Determination of minimum inhibiting concentration in vitro; conditions: ATCC10708, read-out: Minimum Inhibiting Concentration

SMILES | MIC (Bacillus cereus mycoides) [µg/mL] | MIC (Salmonella cholerae suis) [µg/mL]
CCCCCCCC[N+](C)(C)CCOC(=O)C(C)c1ccc(CC(C)C)cc1 (stereo not drawn) [AF 150, bromide of the ester of 2-N,N,N-dimethyl-octyl-amino-ethanol with p-isobutylphenyl-alpha-methylacetic acid] | 10 | 80
N=C(NCCCCCCNC(=N)NC(=N)Nc1ccc(Cl)cc1)NC(=N)Nc1ccc(Cl)cc1 [Chlorexidine, Chlorexidine gluconate, reference compound] | 10 | 10
CCCCCCCCCC[N+](C)(C)CCOC(=O)Cc1c(C)n(C(=O)c2ccc(Cl)cc2)c2ccc(OC)cc12 [RE 8, iodide of the ester of 2-N,N,N-dimethyl-decyl --amino-ethanol with 1-(p-chlorobenzoyl)-2-methyl-5-methoxy-3-indolyl-acetic acid] | 10 | 20
CCCCCCCCCCCC[N+](C)(C)CCOC(=O)Cc1c(C)n(C(=O)c2ccc(Cl)cc2)c2ccc(OC)cc12 [RE 9, iodide of the ester of 2-N,N,N-dimethyl-dodecyl, amino-ethanol with 1-(p-chlorobenzoyl)-2-methyl-5-methoxy-3-indolyl-acetic acid] | ≤ 5 | 20
